Reference: PubChem BioAssay AID588342 (National Center for Advancing Translational Sciences (NCATS), 2011)
Screen size: about 360,000 compounds; about 25,000 (6.9%) were called active. Inconclusive results, whose numbers are uncertain, are shown with a selection of clear calls. The call rests on the fitted dose curve; in most records, active means well fitted inhibition curve with a large enough effect; inconclusive means small, poorly fitted or top-dose-only effect; inactive means flat fitted curve, though single readings scatter. Potencies of inconclusive entries are doubtful fits and often do not repeat.

target: Luciferin 4-monooxygenase (Photinus pyralis) (UniProt P08659); assay: qHTS profiling assay for firefly luciferase inhibitor/activator using purifed enzyme and Km concentrations of substrates (counterscreen for miR-21 project); conditions: purified FLuc, luminescence inhibition; series mostly up to 57.5 µM; activity change, negative = inhibition: at the top concentration; further: nearly all actives have a fitted effect of over 55% in size;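 on activity change, negative = inhibition: plate controls were vehicle for no effect and reference inhibitor for full effect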
Chain of UniProt P08659 (P08659 whole entry, looked up): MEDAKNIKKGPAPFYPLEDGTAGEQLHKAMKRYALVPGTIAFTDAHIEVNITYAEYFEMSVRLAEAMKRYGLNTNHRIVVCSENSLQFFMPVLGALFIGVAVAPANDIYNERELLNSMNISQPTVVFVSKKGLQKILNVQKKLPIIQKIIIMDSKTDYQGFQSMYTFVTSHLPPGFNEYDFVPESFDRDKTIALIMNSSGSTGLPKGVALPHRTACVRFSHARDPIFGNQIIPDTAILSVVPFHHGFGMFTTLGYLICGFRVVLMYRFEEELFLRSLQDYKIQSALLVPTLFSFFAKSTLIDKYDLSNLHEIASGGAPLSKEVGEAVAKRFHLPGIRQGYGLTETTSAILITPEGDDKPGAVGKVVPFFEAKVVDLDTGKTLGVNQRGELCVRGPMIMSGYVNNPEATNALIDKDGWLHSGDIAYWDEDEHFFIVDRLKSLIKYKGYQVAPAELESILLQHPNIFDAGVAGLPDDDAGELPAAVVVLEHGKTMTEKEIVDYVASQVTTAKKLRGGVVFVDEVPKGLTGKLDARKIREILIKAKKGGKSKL
Outline: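 Purified P. pyralis luciferase, 10 nM final, with Km-level 10 uM D-luciferin and 10 uM ATP in 50 mM Tris acetate pH 7.5, 10 mM Mg acetate, 0.01% Tween-20, 0.05% BSA; 6-point qHTS titration about 60 µM downward; luminescence read.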
Potency means the concentration at half of the fitted maximal effect; tags describe the fitted curve by direction and shape.

Row | Compound | Potency | activity change, negative = inhibition
1 | Brc1c(CSc2nnc(-c3ccco3)o2)nc2ccccn12 | inconclusive: 16.9 µM [inhibitor, partial curve, poor fit] | 
2 | Cc1ccc(OCC(=O)c2c(O)c3ccccc3oc2=O)cc1C | inconclusive: 23.9 µM [inhibitor, single point] | 
3 | COc1ccc(C(=O)O/N=C(/C)c2cccs2)cc1 | active: 0.0757 µM | 
4 | Nc1c(-c2cccc(Cl)c2)cnn1-c1cccc([N+](=O)[O-])c1 | inconclusive: 26.9 µM [inhibitor, partial curve, poor fit] | 
5 | C=CCc1ccc(OCC(O)COc2ccc(CC=C)cc2OC)c(OC)c1 | inconclusive: 19 µM [inhibitor, partial curve, poor fit] | 
6 | CC(=O)c1cccc(NC(=O)C2=CC(c3ccc(F)cc3)=NS(=O)(=O)N2C)c1 |  | inactive: 0.921%
7 | Cc1ccc2c(c1)Cc1nc3ccccc3nc1-2 | active: 1.07 µM | 
8 | CCOC(=O)N1CCN(C(=O)c2cc(COc3cccc(C(C)=O)c3)on2)CC1 | inconclusive: 19 µM [inhibitor, partial curve] | 
9 | COc1ccc(/C=C2/N=C(SC)NC2=O)cc1OC | inconclusive: 30.1 µM [inhibitor, single point] | 
10 | Cn1ccsc1=NC(=O)c1cc(S(=O)(=O)N2CCOCC2)ccc1F |  | inactive: -2.37%
11 | CCOc1ccc(NC(=O)C2CCCN(c3nn4cc(-c5ccc(OC)cc5)nc4s3)C2)cc1 (stereo unspecified) | inconclusive: 12 µM [inhibitor, partial curve] | 
12 | CCOC(=O)c1c(-c2cccc([N+](=O)[O-])c2)csc1NC(=O)CCCOc1ccccc1OC |  | inactive: 1.52%
13 | CCCCC(=O)N/N=C(C)/C=C/c1ccccc1F | inconclusive: 10.7 µM [inhibitor, partial curve] | 
14 | Oc1c(Cl)cc(Cl)cc1C=Nc1ccc(N2CCOCC2)cc1 | inconclusive: 15.1 µM [inhibitor, partial curve, poor fit] | 
15 | Cc1ccccc1OCCCn1c(CCNC(=O)C2CCCCC2)nc2ccccc21 | inconclusive: 19 µM [inhibitor, partial curve] | 
16 | O=C(Nc1cccc(C(=O)O)c1)Nc1cccc2ccccc12 | active: 2.13 µM | 
17 | CCc1c(C)nc(SCc2ccccn2)[nH]c1=O | inconclusive: 19 µM [inhibitor, partial curve, poor fit] | 
18 | COc1ccc(NC(=O)CN(C)C(=O)c2ccc(-c3ccccc3Cl)o2)cc1 | active: 23.9 µM | 
19 | COc1ccc(/C=C/c2c(-c3ccc(OC)cc3)oc3cccnc23)cc1 | inconclusive: 15.1 µM [inhibitor, partial curve] | 
20 | O=C(O)c1ccc(/C=N/Nc2ncc(Cl)cc2Cl)cc1 | inconclusive: 21.3 µM [inhibitor, partial curve] | 
21 | CCCCOc1ccc(C(=O)Nc2ccc(CN3CCOCC3)cc2)cc1 | inconclusive: 6.01 µM [inhibitor, partial curve, poor fit] | 
22 | C=C(C)COc1ccc(-c2nc(N)ncc2Oc2ccc(OC)cc2)c(O)c1 |  | inactive: -18.2%
23 | CC(C)COc1ccc(-c2nnc(-c3ccncc3)o2)cc1 | active: 3.38 µM | 
24 | O=C(O)c1ccc2oc(=O)n(Cc3ccccc3)c2c1 | inconclusive: 37.9 µM [inhibitor, partial curve, poor fit] | 

Row | Compound | Potency | activity change, negative = inhibition
25 | O=C(Nc1nnc(-c2cccs2)o1)c1cc(-c2ccccc2)nc2ccccc12 | active: 19 µM | 
26 | Cc1nc(Nc2ccccc2C(F)(F)F)sc1C(=O)N(C)C | inconclusive: 37.9 µM [inhibitor, partial curve, poor fit] | 
27 | CN(C)C(=O)c1cc(C(=O)c2ccc(F)cc2F)c[nH]1 | inconclusive: 23.9 µM [inhibitor, partial curve] | 
28 | COc1ccc(/C=C/C(=O)N2CCC(c3ccccc3)C2)cc1 (stereo unspecified) | active: 19 µM | 
29 | CCOc1ccc(NC(=O)CC2C(=O)N(c3ccc(F)cc3)C(=O)N2CCc2sccc2C)cc1 (stereo unspecified) |  | inactive: 1.33%
30 | Cn1c(CN2CCOCC2)nc2cc(NC(=O)c3ccc(Cl)cc3)ccc21 | inconclusive: 23.9 µM [inhibitor, partial curve, poor fit] | 
31 | O=C(Nc1ncccc1Cl)c1ccc2c(c1)OCCO2 | active: 13.5 µM | 
32 | CCn1ncc(/C=N\NC(=O)c2cc(-c3ccc(C)cc3C)nc3ccccc23)c1C | inconclusive: 13.5 µM [inhibitor, partial curve, poor fit] | 
33 | CC(=O)c1ccc(OCc2cc(C(=O)N(C)Cc3cc(C)no3)no2)cc1 | inconclusive: 33.8 µM [inhibitor, single point] | 
34 | O=C(NCc1ccc(F)cc1)c1cc(Sc2ccc(F)cc2F)nc2ccccc12 |  | inactive: 4.79%
35 | Cc1c(C(=O)NCc2ccccc2Cl)sc2nc(-c3ccc(F)cc3)cn12 |  | inactive: 0.456%
36 | O=C(NC1CC2CCC1C2)c1ccc(CN2CCOCC2)cc1 (stereo unspecified) | inconclusive: 13.5 µM [inhibitor, partial curve, poor fit] | 
37 | Cc1c(Cl)cccc1NC(=S)Nn1cnnc1 | inconclusive: 21.3 µM [inhibitor, partial curve, poor fit] | 
38 | Cc1nn(C(=O)c2ccccc2)c(C)c1S(=O)(=O)N1CCOCC1 | inconclusive: 19 µM [inhibitor, partial curve, poor fit] | 
39 | COc1ccc(CNC(=O)c2ccc(-c3nc(CSc4ccc(C)cc4)c(C)o3)cc2)cc1OC |  | inactive: 3.76%
40 | O=C(Nc1ccccc1C(F)(F)F)c1ccccn1 | inconclusive: 15.1 µM [inhibitor, partial curve, poor fit] | 
41 | N#Cc1c(NC(=O)c2nc3ncccn3n2)sc2c1CCCCC2 | active: 13.5 µM | 
42 | CCC(C(=O)OCC(=O)Nc1ccc(F)cc1)c1ccccc1 (stereo unspecified) |  | inactive: 3.83%
43 | O=C(CN1C(=O)c2ccccc2S1(=O)=O)N1CCc2ccccc21 | inconclusive: 30.1 µM [inhibitor, partial curve] | 
44 | COc1cccc(/C=C/C(=O)OCC(=O)Nc2cccc(S(=O)(=O)N3CCCCC3)c2)c1OC | inconclusive: 12 µM [inhibitor, partial curve, poor fit] | 
45 | O=C(OCC(=O)c1ccccc1Br)c1ccncc1 | active: 10.7 µM | 
46 | CC1=C(c2ccc(C)cc2)S(=O)(=O)NC1=NCCCN1CCN(c2cc(C)ccc2C)CC1 |  | inactive: -0.583%
47 | Cc1nn(-c2ccccc2)c(C)c1NC(=O)COC(=O)CC(C)c1ccccc1 (stereo unspecified) |  | inactive: 6.73%
48 | OCCOc1ccc(CN2CCN(CCCc3ccccc3)C(CCO)C2)cc1 (stereo unspecified) |  | inactive: -5.26%

Row | Compound | Potency | activity change, negative = inhibition
49 | COc1ccc(N2CCN(c3ncnc4c3cnn4-c3ccc(C)c(Cl)c3)CC2)cc1 |  | inactive: 4.69%
50 | Fc1ccc(N2CCN(c3cnc4ccccc4n3)CC2)cc1 | active: 10.7 µM | 
51 | O=C(N/N=C/c1ccc2c(c1)OCO2)c1ccccn1 | active: 2.13 µM | 
52 | C/C(CC(=O)Nc1ccc2c(c1)OCCO2)=N\NC(=O)COc1ccc(C)cc1Br | inconclusive: 23.9 µM [inhibitor, partial curve, poor fit] | 
53 | CS(=O)(=O)N(CC(=O)N1CCCCCC1)c1cccc(F)c1 |  | inactive: 1.86%
54 | COCC(C)NC(=O)c1oc2c(c1C)C1(CCC2)SCCS1 (stereo unspecified) | inconclusive: 30.1 µM [inhibitor, partial curve, poor fit] | 
55 | O=C(O)c1ccc2c(c1)ncn2C1CCCC1 | inconclusive: 23.9 µM [inhibitor, partial curve, poor fit] | 
56 | CN1CCN(C(c2ccc(Cl)cc2Cl)c2sc3nc(-c4ccco4)nn3c2O)CC1 (stereo unspecified) | inconclusive: 16.9 µM [inhibitor, partial curve, poor fit] | 
57 | CC(=O)Nc1ccc(NC(=O)c2cccc(-c3cc4ccccc4oc3=O)c2)cc1 | inconclusive: 23.9 µM [inhibitor, partial curve] | 
58 | CCCCCCCOc1ccc(C2CC(=O)N(C)C2=O)cc1 (stereo unspecified) | inconclusive: 26.9 µM [inhibitor, partial curve, poor fit] | 
59 | CCOC(=O)c1ccc(NC(=O)CSc2nnc(CNC(=O)c3c(F)cccc3Cl)o2)cc1 | inconclusive: 30.1 µM [inhibitor, single point] | 
60 | Cc1ccccc1-c1nc(C#N)c(N2CCCCC2)o1 | inconclusive: 37.9 µM [inhibitor, partial curve, poor fit] | 
61 | CN(CC(=O)Nc1cccc(F)c1)C(=O)c1cc(-c2ccccc2)nc2ccccc12 |  | inactive: -14%
62 | Cc1ccc(OCC(=O)Nc2ccc(OCc3cc(=O)n4ccsc4n3)cc2)cc1 |  | inactive: 0.885%
63 | CC(C)Oc1ccc(C(=O)Nc2ccc(NC(=O)c3ccco3)c(Cl)c2)cc1 | active: 0.536 µM | 
64 | COC(=O)c1c(-c2ccc(SC)cc2)sc2ccccc12 | inconclusive: 15.1 µM [inhibitor, single point] | 
65 | O=C(NCCCl)NNC(=O)c1cc2ccccc2cc1O | inconclusive: 37.9 µM [inhibitor, single point] | 
66 | COc1cccc(-c2csc(NC(=O)Nc3ccccc3)n2)c1 | active: 13.5 µM | 
67 | CCCCn1c(N)c(N(Cc2ccccc2OC)C(=O)CCSC)c(=O)[nH]c1=O | inconclusive: 23.9 µM [inhibitor, partial curve] | 
68 | COc1ccc(-c2cn3cccnc3n2)cc1NC(=O)COc1ccccc1 | inconclusive: 30.1 µM [inhibitor, partial curve, poor fit] | 
69 | O=C(O)c1ccc(-n2nc(C(F)(F)F)c3c2CCCC3)cc1 | inconclusive: 37.9 µM [inhibitor, partial curve, poor fit] | 
70 | COc1ccc2cc(C(=O)N3CCN(c4cccc(C)c4C)CC3)[nH]c2c1 | inconclusive: 37.9 µM [inhibitor, partial curve, poor fit] | 
71 | O=C(N/N=C/c1ccc2c(c1)OCO2)c1ccc2c(c1)OCO2 | inconclusive: 2.13 µM [inhibitor, partial curve] | 
